Laboratory results reported in the RNAGym collection of RNA variant scans (doi:10.1073/pnas.2313332121).
This sample is rich in variants without activity.

B1: TPR 5TU (parent)
chain: GGAUCUUCUCGAUCUAACAAAAAAGACAAAUCUGCCACAAAGCUUGAGAGCAUCUUCGGAUGCAGAGGCGGCAGCCUUCGGUGGCGCGAUAGCGCCAACGUUCUCAACUAUGACACGCAAAACGCGUGCUCCGUUGAAUGGAGUUUAUCAUG

Variants of: B1
Experiment: polymerase ribozyme fitness, log enrichment relative to wild type (log ratio); higher = more active; in vitro selection for triplet polymerase activity
Outline: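 A heterodimeric triplet polymerase ribozyme had each of its subunits mutagenized by PCR into a library, which was transcribed. One round of in vitro selection, done in triplicate, annealed each library with a biotinylated primer, its partner subunit and triplets, then incubated it frozen at −7 °C before gel excision of extended constructs, streptavidin-bead capture and RT-PCR. Fitness is the logarithm of genotype enrichment relative to wild-type enrichment, based on Illumina sequencing of inputs and outputs and inverse-variance-weighted replicate averages. A base-2 logarithm is used, and genotypes were kept only with ≥10 input reads and ≥1 read per output.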

Variant | polymerase ribozyme fitness (log ratio)
G70U C96U A110U | ≤ -4.2
G70U C131U A137G | -4.05
G70U U82A C93U A110G U135A | ≤ -4.2
G71A | -2.47
G71A A89G G136C | ≤ -4.2
G71A C72U G84C G124C | ≤ -4.2
G71A C76U C85A | ≤ -4.2
G71A C79U | ≤ -4.2
G71A C79U G86C A97G U101G A110U G133A | ≤ -4.2
G71A C87A C99G G141A | ≤ -4.2
G71A C87A G136C | ≤ -4.2
G71A C93G | ≤ -4.2
G71A G80C | ≤ -4.2
G71A G83A G94A G126A | ≤ -4.2
G71A G124A U134A | ≤ -4.2
G71A G128A | ≤ -4.2
G71A U77C A106U U139A | ≤ -4.2
G71A U90G | ≤ -4.2
G71C | -2.66
G71C A91U A110G G141C | ≤ -4.2
G71C C79U A115U A120G G133A | ≤ -4.2

Variant | polymerase ribozyme fitness (log ratio)
G71C C87A G128U C131U G152U | ≤ -4.2
G71C C87U U104C C149U | ≤ -4.2
G71C C129A | ≤ -4.2
G71C G84U A91C A106G U144A | ≤ -4.2
G71C G117U C149U | ≤ -4.2
G71C U82A C85G U146G A150C | ≤ -4.2
G71C U102G G133C G141C | ≤ -4.2
G71C U111G | ≤ -4.2
G71U | -1.93
G71U A91U C125G | ≤ -4.2
G71U A107U G143U | ≤ -4.2
G71U C72G C87U A107U | ≤ -4.2
G71U C76A C95U C125U A142C | ≤ -4.2
G71U C76U G84C G92U A98G G117A A122U U146A | ≤ -4.2
G71U C85A G92U G143C | ≤ -4.2
G71U C85G U134G U139G | ≤ -4.2
G71U C95U U104G A107G C118U | ≤ -4.2
G71U G88U C131G A147C | ≤ -4.2
G71U G88U G124C | ≤ -4.2
G71U U77G C79A C85G | ≤ -4.2
C72A A73C | ≤ -4.2

Variant | polymerase ribozyme fitness (log ratio)
C72A A91G | ≤ -4.2
C72A C85A C103G G141C | ≤ -4.2
C72A C85A U135G G136C | ≤ -4.2
C72A C85G G133U | ≤ -4.2
C72A C93U | ≤ -4.2
C72A C96A G117C | ≤ -4.2
C72A C125U | ≤ -4.2
C72A G88A | ≤ -4.2
C72A G94U C96U G133A | ≤ -4.2
C72A U90G C95G C105U C123U G141U | ≤ -4.2
C72G A89U U90C G92C C118U | ≤ -4.2
C72G C76A U104A | ≤ -4.2
C72G C87A A91G A106U A110C C116U A142C | ≤ -4.2
C72G C93G C95U C118G A138C U145A | ≤ -4.2
C72G C105U | -3.5
C72G C118U | ≤ -4.2
C72G C123G | ≤ -4.2
C72G G81U C85U A115U | ≤ -4.2
C72G G83A G100A | ≤ -4.2
C72G G83C | ≤ -4.2
C72G G92U C93U C116G G140U | ≤ -4.2

Variant | polymerase ribozyme fitness (log ratio)
C72G U90C | ≤ -4.2
C72U A73C A98G C118A G124C U135C U139A | ≤ -4.2
C72U A73C C85A A110C | ≤ -4.2
C72U A89G C95A | -1.39
C72U A98U | 0.351
C72U C79U G83C C87U C95U A98G A107U G141C U145A A150G | ≤ -4.2
C72U C85U U90C | ≤ -4.2
C72U G81U G92C U111C | ≤ -4.2
C72U G84A C87A C108G U134G G140A | ≤ -4.2
C72U G92U C99U A142C C149A A150U | ≤ -4.2
C72U G140A U148C | ≤ -4.2
C72U U82A G86U C108G U135A U148C | ≤ -4.2
C72U U90C A122G G136A C149G | ≤ -4.2
C72U U104G A106G U144A | -4.01
A73C | -2.13
A73C A91C C93G G94C A98G C116A | ≤ -4.2
A73C C85A | ≤ -4.2
A73C C85U A138U | ≤ -4.2
A73C C93A | ≤ -4.2
A73C C93A C99U C118U | ≤ -4.2
